Measurements: publication PMC7819943, “Rice protein-binding microarrays: a tool to detect cis-acting elements near promoter regions in rice”
The other results are listed elsewhere or left out.

Biological target: T1, OsWOX13 (Oryza sativa, UniProt Q5QMM3 1-267)
T1 sequence: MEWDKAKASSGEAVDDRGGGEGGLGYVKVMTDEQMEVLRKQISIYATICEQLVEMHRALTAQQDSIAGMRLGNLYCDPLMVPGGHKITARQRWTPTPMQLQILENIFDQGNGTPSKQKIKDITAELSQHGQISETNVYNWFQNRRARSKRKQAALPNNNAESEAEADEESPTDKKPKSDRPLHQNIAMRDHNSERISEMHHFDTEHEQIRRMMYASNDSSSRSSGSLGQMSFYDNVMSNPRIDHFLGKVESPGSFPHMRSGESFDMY
Experiment: protein-binding microarray (RPBM); PBS, 2% BSA, 51.3 ng/ul salmon testes DNA, 50 uM zinc acetate, 200 nM TF, 25 C, 1 h; high values mean tight binding
Settings: protein: recombinant; tags: N-terminal polyhistidine and DsRed monomer fusion (pET32a); label: CyDye5-dUTP incorporated in the synthesized complementary strand; 3' TTTTT single-stranded linker to array surface; dsDNA, one strand shown
Method in brief: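 An Axon 4000B scanner gave the binding signal as per-feature fluorescence intensity in arbitrary units. This followed washing of a custom Agilent array that had been incubated for 1 h at 25 °C with 200 nM protein in PBS, 2% BSA, salmon testes DNA and 50 µM zinc acetate. The proteins were transcription factors fused at the N-terminus to polyhistidine and DsRed, expressed in E. coli BL21-CodonPlus and purified on Ni–NTA.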

Point of comparison: “ATAGATTAAATGATAAAATATGAATAATACTTTATGCGTACGGAGTCACCTAGTGCAG”, binding signal 24500 fluorescence intensity (a.u.). Against it:
- GAGTAACAAATTTGCTATAATTAAAGGATACTTTTCAGTTCGGAGTCACCTAGTGCAG — higher, 28700 fluorescence intensity (a.u.)
- TGCTGATTAGACCAGCCCTATGGCGACGGTCAGATCGGTCCGGAGTCACCTAGTGCAG — higher, 36400 fluorescence intensity (a.u.)
- CTTTCCAATATATTGATGATTAATCCTTTTGCGTGTTCGTCGGAGTCACCTAGTGCAG — lower, 15300 fluorescence intensity (a.u.)
- ATAAATAGACTTATTTGTCATCCACTTAAAGTGTCAAAACCGGAGTCACCTAGTGCAG — lower, 11600 fluorescence intensity (a.u.)
- TCTAGAATTGATCATTTTATGAAAGATGAAGTCACTACGTCGGAGTCACCTAGTGCAG — lower, 18500 fluorescence intensity (a.u.)
- GTGTACAGCAAATTTGCTGTAATCATGGGCTAATATTTTGCGGAGTCACCTAGTGCAG — lower, 7210 fluorescence intensity (a.u.)
- GCAGGTGATATACCTAAATTGAAAAGTAATAGGTGATTCACGGAGTCACCTAGTGCAG — lower, 7270 fluorescence intensity (a.u.)
- ACGCTGATTCAATTGTCATCCAATTTCTCGATTTATCTGTCGGAGTCACCTAGTGCAG — lower, 7120 fluorescence intensity (a.u.)
- TGACCAATTAACATATTTAACCACTGTAAATCTAATCCTGCGGAGTCACCTAGTGCAG — lower, 18300 fluorescence intensity (a.u.)
- TCGATTGAATTTAGAATGCAATGTCTACTTCAATGAAGGACGGAGTCACCTAGTGCAG — lower, 14700 fluorescence intensity (a.u.)
- GCTTGACTGACAAGCTATGATTAAATTTGCATGACGAGTTCGGAGTCACCTAGTGCAG — higher, 25600 fluorescence intensity (a.u.)
- ACCTGAATGACTGAATCCTATCTTGACGCTGCAATCTGGACGGAGTCACCTAGTGCAG — lower, 18500 fluorescence intensity (a.u.)
- TATCAATAATTAGTGTTATGAATAATAAATAAATTGGGTGCGGAGTCACCTAGTGCAG — higher, 29600 fluorescence intensity (a.u.)
- TCTTATTAATGATGGGCACTTTGATATTTTCTTCTTTCACCGGAGTCACCTAGTGCAG — lower, 5460 fluorescence intensity (a.u.)
- GATAATCTTGTTTTATCCAAGATTAGATAGTACTACTAGTCGGAGTCACCTAGTGCAG — lower, 3250 fluorescence intensity (a.u.)
- CGGGTAGGGTGGGGTGGGGCGGGGTGGGGTTGGCGGCGACCGGAGTCACCTAGTGCAG — lower, 23900 fluorescence intensity (a.u.)
- TTTTAGATTAGATTCTAAGAAGTTGTAGTTGTAGAATCTACGGAGTCACCTAGTGCAG — lower, 5200 fluorescence intensity (a.u.)
- TATTAATGGTGACTTGGTGATTATGGAAGAAGTTAACCCGCGGAGTCACCTAGTGCAG — lower, 12300 fluorescence intensity (a.u.)
- TCATGGCCTAATTAGTCTCAAAAGATTCGTCTCGCGATTTCGGAGTCACCTAGTGCAG — lower, 4840 fluorescence intensity (a.u.)
- AGATGAATTTATTAAGCCTAATTAATACATCATTAGTACACGGAGTCACCTAGTGCAG — lower, 5650 fluorescence intensity (a.u.)
- TGAAACATGTGCTTGATTATGTTGACATGTTGAAGAAGTACGGAGTCACCTAGTGCAG — lower, 6600 fluorescence intensity (a.u.)
- ATAGCTTAACTGGTTACATTCCGTGTGATGGAACCAGCTCCGGAGTCACCTAGTGCAG — lower, 4170 fluorescence intensity (a.u.)
- ATATTAAATTAATCATTAAATGGTCTGGTTTTAATATTGTCGGAGTCACCTAGTGCAG — higher, 31300 fluorescence intensity (a.u.)
- TTATATGATTGCTAACAGATGAACGTCTTGTGTTGCTTTGCGGAGTCACCTAGTGCAG — higher, 46600 fluorescence intensity (a.u.)
- CTACCATCCGGATCAAACATCAATCAACCAAAACAGCCTCCGGAGTCACCTAGTGCAG — lower, 7770 fluorescence intensity (a.u.)
- TTCTTAAAGGTAATTGGATGTGCAGTATAATTCTTAAAAGCGGAGTCACCTAGTGCAG — lower, 6420 fluorescence intensity (a.u.)
- AACTTAATCACAACCCTCCACCACTCACTTCTAACTACTTCGGAGTCACCTAGTGCAG — lower, 3550 fluorescence intensity (a.u.)
- ACCAAATTAATTAACCCTATCTCTCGATCTCTCCCTCTCTCGGAGTCACCTAGTGCAG — higher, 37200 fluorescence intensity (a.u.)
- GATCGATCATTAGATTTATTTATAAGTCAAATTAATAAGCCGGAGTCACCTAGTGCAG — lower, 3710 fluorescence intensity (a.u.)
- TTTAATTCCGAATTTCAGTTATTTCCTAATTGTATTTCTACGGAGTCACCTAGTGCAG — lower, 6130 fluorescence intensity (a.u.)
- GTAGTGTTGACTGGAAATCAGAGATATTGGAGGCTGCAGACGGAGTCACCTAGTGCAG — lower, 8080 fluorescence intensity (a.u.)
- TCCATGGCAATCATTGGTTGAGTCCGGTGAAGCCACCAACCGGAGTCACCTAGTGCAG — lower, 15500 fluorescence intensity (a.u.)
- TTTGCATTTGTGTGATTAGCGACGGGCGATAGCGATCGAGCGGAGTCACCTAGTGCAG — lower, 5420 fluorescence intensity (a.u.)
- GTAATTTGTTTTGTTATTAGACTACGTTTAATACTTCAAACGGAGTCACCTAGTGCAG — lower, 3740 fluorescence intensity (a.u.)
- GCGGAGGAGGTGGTGGTGGTGGAGGAGGAGGAGGCCAAGGCGGAGTCACCTAGTGCAG — lower, 4960 fluorescence intensity (a.u.)
- ATTAATAAATAATTTATTATAAATTAAATTTATTGGATGACGGAGTCACCTAGTGCAG — higher, 40300 fluorescence intensity (a.u.)
- AATCAAGAGATGATTGATAATTGTTTATATGGATGAATTACGGAGTCACCTAGTGCAG — lower, 24100 fluorescence intensity (a.u.)
- ACTCTCTTAACTGATTATCGCCGCGTACAGTATATGCAAGCGGAGTCACCTAGTGCAG — lower, 9530 fluorescence intensity (a.u.)
- AATGACAGGGGTAATAAAGGTTATTTCCTTGTTGTTTCGCCGGAGTCACCTAGTGCAG — lower, 6710 fluorescence intensity (a.u.)
- ATATGATGTACCTAATTATGTGAATAAGATTATTTACAATCGGAGTCACCTAGTGCAG — lower, 23400 fluorescence intensity (a.u.)
- TCTTAAATTAACTTTAAAATTAGATTTGAAAATTCAAATTCGGAGTCACCTAGTGCAG — lower, 15200 fluorescence intensity (a.u.)
